Among the data in PMC2637979 are binding values, retold here.

By UniProt entry, the sequences of proteins in these tests, tags left out. Residues count along the entry.
GST-RHA fusion protein encoding amino acid residues 1 to 263 (Q08211, residues 1-263): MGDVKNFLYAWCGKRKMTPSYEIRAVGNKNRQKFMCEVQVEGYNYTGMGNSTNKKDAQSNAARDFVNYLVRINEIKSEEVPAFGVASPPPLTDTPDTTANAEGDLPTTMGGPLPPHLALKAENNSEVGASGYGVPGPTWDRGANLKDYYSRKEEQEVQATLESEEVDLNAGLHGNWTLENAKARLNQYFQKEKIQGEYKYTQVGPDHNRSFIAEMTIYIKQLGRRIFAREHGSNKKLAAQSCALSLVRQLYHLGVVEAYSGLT
GST-RHA fusion protein encoding amino acids 1 to 79 (first RBM) (Q08211, residues 1-79): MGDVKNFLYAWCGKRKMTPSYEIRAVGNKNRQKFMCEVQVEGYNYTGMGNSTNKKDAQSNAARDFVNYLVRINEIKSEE
UniProt P19525: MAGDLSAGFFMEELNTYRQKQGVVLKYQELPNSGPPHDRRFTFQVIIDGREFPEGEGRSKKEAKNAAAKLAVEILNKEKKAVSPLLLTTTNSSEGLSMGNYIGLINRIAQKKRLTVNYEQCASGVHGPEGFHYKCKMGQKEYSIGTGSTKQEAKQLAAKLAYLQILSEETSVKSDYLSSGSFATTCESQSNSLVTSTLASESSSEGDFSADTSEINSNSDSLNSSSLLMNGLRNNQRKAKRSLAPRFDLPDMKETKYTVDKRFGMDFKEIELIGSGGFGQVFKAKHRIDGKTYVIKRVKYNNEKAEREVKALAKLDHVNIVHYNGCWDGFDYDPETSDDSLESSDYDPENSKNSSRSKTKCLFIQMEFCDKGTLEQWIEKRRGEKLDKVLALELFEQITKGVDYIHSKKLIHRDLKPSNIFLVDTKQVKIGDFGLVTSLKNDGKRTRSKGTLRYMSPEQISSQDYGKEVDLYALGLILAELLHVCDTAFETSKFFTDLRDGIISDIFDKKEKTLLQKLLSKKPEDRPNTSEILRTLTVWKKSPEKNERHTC
UniProt O70133: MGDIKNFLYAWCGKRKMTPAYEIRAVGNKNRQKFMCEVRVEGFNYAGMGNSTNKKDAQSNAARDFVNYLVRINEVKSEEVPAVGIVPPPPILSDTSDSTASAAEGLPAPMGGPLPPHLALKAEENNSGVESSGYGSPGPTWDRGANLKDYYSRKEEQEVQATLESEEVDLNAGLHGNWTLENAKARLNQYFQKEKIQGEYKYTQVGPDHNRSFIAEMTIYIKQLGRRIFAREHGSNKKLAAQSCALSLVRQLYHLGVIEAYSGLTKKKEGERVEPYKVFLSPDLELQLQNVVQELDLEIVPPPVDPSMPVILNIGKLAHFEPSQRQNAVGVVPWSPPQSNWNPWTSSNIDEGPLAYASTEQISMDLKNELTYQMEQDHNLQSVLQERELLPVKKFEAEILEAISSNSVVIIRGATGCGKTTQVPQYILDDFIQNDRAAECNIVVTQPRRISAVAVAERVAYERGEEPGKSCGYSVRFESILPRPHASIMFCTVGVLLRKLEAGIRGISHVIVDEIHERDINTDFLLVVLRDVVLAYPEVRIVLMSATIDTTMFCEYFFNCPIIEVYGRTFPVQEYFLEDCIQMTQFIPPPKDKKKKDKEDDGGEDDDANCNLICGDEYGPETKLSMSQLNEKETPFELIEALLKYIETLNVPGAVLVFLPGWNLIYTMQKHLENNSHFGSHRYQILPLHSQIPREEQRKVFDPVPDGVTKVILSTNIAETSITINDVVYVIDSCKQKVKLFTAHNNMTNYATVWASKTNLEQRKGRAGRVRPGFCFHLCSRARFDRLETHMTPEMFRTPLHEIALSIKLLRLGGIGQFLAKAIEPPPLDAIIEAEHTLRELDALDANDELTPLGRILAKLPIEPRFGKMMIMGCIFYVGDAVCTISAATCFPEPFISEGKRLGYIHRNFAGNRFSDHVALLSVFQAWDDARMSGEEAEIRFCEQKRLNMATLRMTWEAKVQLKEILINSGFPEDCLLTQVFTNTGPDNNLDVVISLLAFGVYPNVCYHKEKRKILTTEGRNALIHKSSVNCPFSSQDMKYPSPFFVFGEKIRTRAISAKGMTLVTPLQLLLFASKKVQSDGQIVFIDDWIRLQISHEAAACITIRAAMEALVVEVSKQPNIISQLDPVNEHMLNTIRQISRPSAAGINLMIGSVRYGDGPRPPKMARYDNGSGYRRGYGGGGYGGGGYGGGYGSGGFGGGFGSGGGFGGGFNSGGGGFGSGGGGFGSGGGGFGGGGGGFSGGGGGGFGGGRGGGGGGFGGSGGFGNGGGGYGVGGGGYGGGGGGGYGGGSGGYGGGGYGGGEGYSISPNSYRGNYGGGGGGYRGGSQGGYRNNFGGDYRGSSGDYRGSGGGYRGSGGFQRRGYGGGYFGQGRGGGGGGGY

These are yes or no findings as the source states them, for the method shown. In cells and extracts the contact can be indirect. Some binding calls cover weakened binding; strength is not graded here.

Experiment [1] concerns the target GST-RHA fusion protein encoding amino acid residues 1 to 263 (UniProt Q08211). Briefly: pull-down; as a5, ~20 ug GST-RHA 1-263 incubated with a 16 bp dsRNA at 10, 100 or 1000-fold excess for one hour before 35S-PKR was added; only the target purified.
In experiment [2] the target is GST-RHA fusion protein encoding amino acids 1 to 79 (first RBM) (UniProt Q08211). Kind of experiment: pull-down; GST-RHA fusion constructs on glutathione beads incubated with in vitro translated 35S-PKR in cleared E. coli lysate, 2 h, 4 C; five rinses in 50 mM K3PO4 pH 7.5, 150 mM KCl, 1 mM MgCl2, 10% glycerol, 1% Triton X-100; autoradiography; only the target purified.

The target in experiment [3] is GST-RHA fusion protein encoding amino acid residues 1 to 263 (UniProt Q08211). Described as above.
Experiment [4] concerns the target human PKR (double-stranded RNA-activated protein kinase R) expressed in pkr-null MEFs (human) (UniProt P19525). Kind of experiment: co-IP; immunoprecipitation with antibodies to PKR or RHA from pkr-null MEFs expressing human PKR, treated with pIC (100 ug/ml, 2 h); Western blot with the opposing antibody.
Experiment [5] shares this target. Kind of experiment: co-IP; as a3, cells not treated with pIC.
In experiment [6] the target is murine RNA helicase A (RHA), endogenous in MEFs (mouse (endogenous in MEFs)) (UniProt O70133). Briefly: co-IP; immunoprecipitation with a mouse monoclonal anti-RHA antibody from wild-type MEFs (pkr-null MEFs as control); Western blot for murine PKR. On the technique in general: Immunoblotting shows a protein as a band on a membrane.

Consider “35S-labeled PKR synthesized in vitro (from UniProt P19525 1-551) (enzyme)”, for which the figures for the binding entry in experiment [1], in experiment [2] and in experiment [3] were “binds”, “no binding” and “binds”, respectively.
Regarding “murine RNA helicase A (RHA), endogenous in MEFs (from UniProt O70133 1-1380) (enzyme)”, the binding entry is “binds” in experiment [4] and “no binding (condition: cells not treated with pIC)” in experiment [5].

B1: murine PKR, endogenous in wild-type MEFs (enzyme, UniProt Q03963 1-515)
chain: MASDTPGFYMDKLNKYRQMHGVAITYKELSTSGPPHDRRFTFQVLIDEKEFPEAKGRSKQEARNAAAKLAVDILDNENKVDCHTSASEQGLFVGNYIGLVNSFAQKKKLSVNYEQCEPNSELPQRFICKCKIGQTMYGTGSGVTKQEAKQLAAKEAYQKLLKSPPKTAGTSSSVVTSTFSGFSSSSSMTSNGVSQSAPGSFSSENVFTNGLGENKRKSGVKVSPDDVQRNKYTLDARFNSDFEDIEEIGLGGFGQVFKAKHRIDGKRYAIKRVKYNTEKAEHEVQALAELNHVNIVQYHSCWEGVDYDPEHSMSDTSRYKTRCLFIQMEFCDKGTLEQWMRNRNQSKVDKALILDLYEQIVTGVEYIHSKGLIHRDLKPGNIFLVDERHIKIGDFGLATALENDGKSRTRRTGTLQYMSPEQLFLKHYGKEVDIFALGLILAELLHTCFTESEKIKFFESLRKGDFSNDIFDNKEKSLLKKLLSEKPKDRPETSEILKTLAEWRNISEKKKRNTC
In the case of B1, the binding entry in experiment [6] is given as “binds”.
